From PubChem BioAssay AID1963576 (National Center for Advancing Translational Sciences (NCATS), 2024)
Hit rate of the full screen: of about 46,000 compounds, about 60 (0.1%) were called active. About 3% were inconclusive and are not listed. The call rests on the fitted dose curve; in most records, active means well fitted inhibition curve with a large enough effect; inconclusive means small, poorly fitted or top-dose-only effect; inactive means no such curve, though single readings can be large or run the other way. The list shows a part of the results.

Test: Primary qHTS assay for Inhibitors of ovarian cancer metastasis using an organotypic tumor microenvironment (TME) model. Further: nearly all actives have a fitted effect of over 65% in size.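 On activity change, negative = inhibition: plate controls were DMSO wells for no effect and tomatine positive control wells for full effect.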
Settings: SKOV3ip1-GFP adhesion/invasion on 3D omental model, fluorescence; series mostly up to 45.8 µM; activity change, negative = inhibition: at the top concentration
In short: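 A 3D layer of primary human omental fibroblasts, mesothelial cells, fibronectin and collagen I, grown 48 hr, received SKOV3ip1-GFP cells in serum-free medium plus compounds at 0.36-46 umol/L. After 2 hr RT and 16 hr 37 C, fixed adherent GFP cells were counted; normalized to DMSO and tomatine.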

SMILES | activity change, negative = inhibition | outcome
COc1cccc(NC(=O)Cn2cc(C(=O)c3ccc(C)cc3)c(=O)c3cc(OC)ccc32)c1 | inactive: 7.59% | 
CCN(CC)CCNC(=O)c1c2c(nc3ccccc13)C(=O)N(C1CCCCC1)C2 | inactive: -5.37% | 
Cc1ccc(S(=O)(=O)NCCc2cn3ccsc3n2)c(C)c1 | inactive: -9.4% | 
Cc1c(Cl)cccc1NC(=O)CCS(=O)(=O)c1ccc2c(c1)CC(=O)N2C |  | inactive
O=C(CSc1n[nH]c(-c2ccc(F)cc2)n1)NCCc1ccccc1 |  | inactive
CCOc1ccc(NC(=O)/C(C#N)=C\c2ccc(-c3ccc(Cl)cc3)o2)cc1 | inactive: 2.44% | 
COc1ccc(CNC(=O)CCc2c(C)c3cc4c(C)c(C)oc4cc3oc2=O)cc1OC |  | inactive
CC(C)c1ccc(OCC(=O)N(Cc2cccs2)C2CCS(=O)(=O)C2)cc1 (configuration not stated) | inactive: 7.84% | 
Cc1cc2ccccc2n1CCNC(=O)c1ccc(Br)cc1 | inactive: -12% | 
CCc1ccc(NC(=O)CN2C(=O)C3(SCC(=O)N3c3ccc(F)c(F)c3)c3ccccc32)cc1 (configuration not stated) | inactive: 10.9% | 
Cc1cccc(C2CC(=O)Nc3cc4c(cc32)OCO4)c1 (configuration not stated) |  | inactive
CSc1ccc(-c2nnc(NC(=O)c3ccc4c(c3)OCCO4)o2)cc1 | inactive: 4.48% | 
Fc1ccccc1N1CCN(c2nc3ccccc3c3nc(-c4ccccc4)nn23)CC1 | inactive: -3.28% | 
Cc1ccc(N2CC(C(=O)Nc3ccc(N(C)C)cc3)CC2=O)cc1Cl (configuration not stated) | inactive: -10.4% | 
COC(=O)c1ccc(NC(=O)CN2C(=O)CC(c3ccccc3)Sc3ccccc32)cc1 (configuration not stated) | inactive: 44.4% | 
C=C(C)CSc1nc(-c2ccccc2)cc(-c2ccc(OC)cc2)c1C#N | inactive: 1.48% | 
Cc1cc(C)n(C(C)CC(=O)Nc2ccc(C)c(N(C)C)c2)n1 (configuration not stated) | inactive: -11.2% | 
CCC(C(=O)N1CCN(c2ccccc2)CC1)n1c(C)c2cnn(-c3ccccc3)c(=O)c2c1C (configuration not stated) | inactive: 5.74% | 
Cc1nnc(N2CCC(C(=O)NCCC(C)C)CC2)c2nn(-c3ccc(Cl)cc3)c(C)c12 | inactive: -10.3% | 
CCOc1cc(Cl)c(S(=O)(=O)n2ccnc2)cc1Cl | inactive: 3.53% | 
CCN(CC)c1ccc(NC(=O)CCCN2C(=O)C(c3ccccc3)Oc3cccnc32)c(C)c1 (configuration not stated) | inactive: 7.81% | 
O=C(NC1CCCC1)c1ccc2c(=O)n(Cc3ccccc3)c(SCc3cccc(F)c3)nc2c1 | inactive: -0.0042% | 
CC(=O)Nc1cccc(-n2cc3c(c2-c2ccccc2Cl)c(=O)n(C)c(=O)n3C)c1 | inactive: 1.41% | 
CC(C)Oc1ccc(C(=O)Nc2c(C(=O)Nc3cccc(F)c3)oc3ccccc23)cc1 | inactive: -23.1% | 
COc1ccc(C)cc1Nc1cc(C)nc(C)n1 | inactive: 3.06% | 
O=C(CN1C(=O)c2cccnc2Oc2ccc(Cl)cc21)Nc1cccc(C(F)(F)F)c1 | inactive: 4.81% | 
O=C(CCn1ccc2cc(S(=O)(=O)N3CCCC3)ccc21)NCc1ccccc1Br | inactive: 8.8% | 
